The supplement of paper PMC12217912
This is one part of the list. Sequences were assembled here from the parent chain. Inactive controls read about 0.05.

B1: TEV protease; numbered along this chain (parent)
chain: MGESLFKGPRDYNPISSSICHLTNESDGHTTSLYGIGFGPFIITNKHLFRRNNGTLVVQSLHGVFKVKDTTTLQQHLVDGRDMIIIRMPKDFPPFPQKLKFREPQREERICLVTTNFQTKSMSSMVSDTSCTFPSGDGIFWKHWIQTKDGQCGSPLVSTRDGFIVGIHSASNFTNTNNYFTSVPKNFMELLTNQEAQQWVSGWRLNADSVLWGGHKVFMVKPEEPFQPVKEATQL

Variants of: B1
Experiment: raw area under fraction-flipped curve 0-4 h after induction (AUC4h, not background-subtracted), DNA-recorder readout of cleavage of the substrate (dimensionless); higher = more cleavage of the substrate by the protease variant
Conditions: temperature: 34 °C; time window: 0-4 h after rhamnose induction
Description: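 In vivo DNA recorder in E. coli TOP10(DE3) ΔrhaA at 34 °C. Each TEVp single-site mutant (parent TEVp 0) is paired with a single-site variant of the 7-mer TEVs (canonical ENLYFQ|S). The substrate sits between flexible linkers in a Bxb1-sfGFP-TEVs-SsrA fusion, so cleavage stabilises Bxb1 and speeds flipping of a recombination array, read by NGS. The value is the raw area under the fraction-flipped curve over 0-4 h after rhamnose induction (AUC4h), with ≥20 reads per time point. It is not background-subtracted; inactive controls average about 0.047.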
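Note: Bxb1 expression induced with 0.2% (w/v) L-rhamnose at OD600 near 0.5, cultures sampled hourly, flipped fraction per protease–substrate barcode pair counted by paired-end Illumina sequencing.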

Variant	area with substrate ANLYFQS	area with substrate CNLYFQS	area with substrate DNLYFQS	area with substrate FNLYFQS	area with substrate GNLYFQS	area with substrate HNLYFQS	area with substrate INLYFQS	area with substrate KNLYFQS	area with substrate LNLYFQS	area with substrate MNLYFQS	area with substrate NNLYFQS	area with substrate PNLYFQS	area with substrate QNLYFQS	area with substrate TNLYFQS	area with substrate WNLYFQS	area with substrate YNLYFQS	area with substrate RNLYFQS	area with substrate SNLYFQS	area with substrate VNLYFQS
MGESLFKGPRWYNPISSSICHLTNESDGHTTSLYGIGFGPFIITNKHLFRRNNGTLVVQSLHGVFKVKDTTTLQQHLVDGRDMIIIRMPKDFPPFPQKLKFREPQREERICLVTTNFQTKSMSSMVSDTSCTFPSGDGIFWKHWIQTKDGQCGSPLVSTRDGFIVGIHSASNFTNTNNYFTSVPKNFMELLTNQEAQQWVSGWRLNADSVLWGGHKVFMVKPEEPFQPVKEATQL [D11W]	0.061	0.0649	0.0737	0.047	0.0713	0.0721	0.0624	0.0719	0.0598	0.0642	0.0853	0.059	0.0621	0.0546	0.0539	0.067	–	–	–
MGESLFKGPRDYWPISSSICHLTNESDGHTTSLYGIGFGPFIITNKHLFRRNNGTLVVQSLHGVFKVKDTTTLQQHLVDGRDMIIIRMPKDFPPFPQKLKFREPQREERICLVTTNFQTKSMSSMVSDTSCTFPSGDGIFWKHWIQTKDGQCGSPLVSTRDGFIVGIHSASNFTNTNNYFTSVPKNFMELLTNQEAQQWVSGWRLNADSVLWGGHKVFMVKPEEPFQPVKEATQL [N13W]	0.0643	0.0728	0.0764	–	–	0.0702	0.0659	0.0634	0.0588	0.0691	0.0589	0.086	–	0.0637	0.0495	–	0.0287	0.0759	–
MGESLFKGPRDYSPISSSICHLTNESDGHTTSLYGIGFGPFIITNKHLFRRNNGTLVVQSLHGVFKVKDTTTLQQHLVDGRDMIIIRMPKDFPPFPQKLKFREPQREERICLVTTNFQTKSMSSMVSDTSCTFPSGDGIFWKHWIQTKDGQCGSPLVSTRDGFIVGIHSASNFTNTNNYFTSVPKNFMELLTNQEAQQWVSGWRLNADSVLWGGHKVFMVKPEEPFQPVKEATQL [N13S]	0.0589	0.073	0.0687	0.0522	0.0733	0.0519	0.0649	0.0718	0.0635	0.0665	–	0.0716	–	0.0734	0.0561	0.0661	0.0601	0.0662	0.0689
MGESLFKGPRDYTPISSSICHLTNESDGHTTSLYGIGFGPFIITNKHLFRRNNGTLVVQSLHGVFKVKDTTTLQQHLVDGRDMIIIRMPKDFPPFPQKLKFREPQREERICLVTTNFQTKSMSSMVSDTSCTFPSGDGIFWKHWIQTKDGQCGSPLVSTRDGFIVGIHSASNFTNTNNYFTSVPKNFMELLTNQEAQQWVSGWRLNADSVLWGGHKVFMVKPEEPFQPVKEATQL [N13T]	0.0764	0.0728	0.0709	0.0479	0.0834	0.077	0.0948	0.0518	–	0.0671	–	0.0695	0.0946	0.0688	0.075	0.063	–	0.0686	0.0672
MGESLFKGPRDYVPISSSICHLTNESDGHTTSLYGIGFGPFIITNKHLFRRNNGTLVVQSLHGVFKVKDTTTLQQHLVDGRDMIIIRMPKDFPPFPQKLKFREPQREERICLVTTNFQTKSMSSMVSDTSCTFPSGDGIFWKHWIQTKDGQCGSPLVSTRDGFIVGIHSASNFTNTNNYFTSVPKNFMELLTNQEAQQWVSGWRLNADSVLWGGHKVFMVKPEEPFQPVKEATQL [N13V]	0.0674	0.0633	0.0771	0.0526	0.061	0.0647	0.058	0.065	0.0859	–	0.0674	0.075	–	0.0692	0.0533	0.0582	–	0.0486	–
MGESLFKGPRDYNIISSSICHLTNESDGHTTSLYGIGFGPFIITNKHLFRRNNGTLVVQSLHGVFKVKDTTTLQQHLVDGRDMIIIRMPKDFPPFPQKLKFREPQREERICLVTTNFQTKSMSSMVSDTSCTFPSGDGIFWKHWIQTKDGQCGSPLVSTRDGFIVGIHSASNFTNTNNYFTSVPKNFMELLTNQEAQQWVSGWRLNADSVLWGGHKVFMVKPEEPFQPVKEATQL [P14I]	0.074	0.0658	0.0764	0.065	0.0614	0.0556	0.0587	–	–	0.0578	0.052	0.0615	0.0642	0.0692	0.0645	0.0573	–	0.0426	0.0577
MGESLFKGPRDYNPITSSICHLTNESDGHTTSLYGIGFGPFIITNKHLFRRNNGTLVVQSLHGVFKVKDTTTLQQHLVDGRDMIIIRMPKDFPPFPQKLKFREPQREERICLVTTNFQTKSMSSMVSDTSCTFPSGDGIFWKHWIQTKDGQCGSPLVSTRDGFIVGIHSASNFTNTNNYFTSVPKNFMELLTNQEAQQWVSGWRLNADSVLWGGHKVFMVKPEEPFQPVKEATQL [S16T]	0.0624	0.0617	0.0629	0.0533	–	0.0672	0.0756	0.072	0.0545	0.0674	0.0691	–	0.075	0.0644	0.057	0.0781	–	–	0.065
MGESLFKGPRDYNPIISSICHLTNESDGHTTSLYGIGFGPFIITNKHLFRRNNGTLVVQSLHGVFKVKDTTTLQQHLVDGRDMIIIRMPKDFPPFPQKLKFREPQREERICLVTTNFQTKSMSSMVSDTSCTFPSGDGIFWKHWIQTKDGQCGSPLVSTRDGFIVGIHSASNFTNTNNYFTSVPKNFMELLTNQEAQQWVSGWRLNADSVLWGGHKVFMVKPEEPFQPVKEATQL [S16I]	0.0541	0.0695	–	0.0589	0.0622	–	0.0196	0.0651	0.0496	–	0.0755	0.0597	–	0.0588	0.0543	0.0553	0.0626	0.0887	0.0602
